In all, about 350,000 compounds went through this assay and about 9,900 (2.8%) were called active. The inconclusive results got no clear call from the source; some entries with a clear call stand among them for comparison. The call rests on the fitted dose curve; in most records, active means well fitted activation curve with a large enough effect; inconclusive means small, poorly fitted or top-dose-only effect; inactive means no such curve, though single readings can be large or run the other way. Potencies of inconclusive entries are left out as doubtful fits.
Test: A quantitative high throughput screen for small molecules that induce DNA re-replication in MCF 10a normal breast cells. Further: nearly all actives have a fitted effect of over 50% in size.
Conditions: MCF 10A DNA re-replication, Hoechst nuclear intensity, 48 h; series mostly up to 46.1 µM
Potency means the concentration at half of the fitted maximal effect; tags describe the fitted curve by direction and shape.

Row | SMILES | Potency
1 | Cc1ccc(NC(=S)NC(NC(=O)c2ccccc2C)C(Cl)(Cl)Cl)c(C)c1 (stereo not given) | inconclusive [activator, single point]
2 | CCCCOc1ncnc2c1[nH]c1ccc(C)cc12 | inactive
3 | CCCn1c(O)c(N=NC(=O)c2cccnc2)c2cc(Br)ccc21 | inconclusive [activator, single point]
4 | CCCCCCNc1c(C(=O)OCC)c(=O)[nH]c2ccccc12 | inactive
5 | C(=N\N1CCN(Cc2ccccc2)CC1)/c1ccc(-c2ccccc2)cc1 | inactive
6 | Nc1cc[n+](CC(=O)Nc2ccccc2)cc1 | inactive
7 | O=C(CCSc1ccccc1)Nc1nc2c(s1)CCCC2 | inconclusive [activator, partial curve, poor fit]
8 | Cc1cc(-c2ccc([N+](=O)[O-])cc2)nc2ccccc12 | inactive
9 | Cc1ccc(C(=O)Cn2c(=N)n(N)c3ccccc32)cc1 | inactive
10 | Cc1nc(/N=C(\N)NC(=O)NC2CCCCC2)nc2ccccc12 | inconclusive [activator, single point]
11 | COc1ccc(C2(CNC(=O)/C=C/c3ccco3)CCCC2)cc1OC | inconclusive [activator, single point]
12 | CC(C)Sc1nnc(CNC(=O)C23CC4CC(CC(C4)C2)C3)n1C1CCCCC1 | inconclusive [activator, full curve, poor fit]
13 | CCOC(=O)C1CCN(C(=O)C(=O)N2CCC(C(=O)OCC)CC2)CC1 | inconclusive [activator, full curve, poor fit]
14 | N#CCC(=O)Nc1ccc(C(=O)NCCc2c[nH]c3ccccc23)cc1 | inactive
15 | O=C(CCc1ccccc1Cl)NC1CCCN(c2ccc(C(F)(F)F)cn2)C1 (stereo not given) | inconclusive [activator, partial curve, poor fit]
16 | CN1C(=O)C(O)(CC(=O)c2ccc(F)cc2)c2cc(Br)ccc21 (stereo not given) | inconclusive [activator, partial curve, poor fit]
17 | COc1cc(C(=O)NCc2cc3cc(Cl)ccc3n2C)cc(OC)c1OC | inconclusive [activator, partial curve, poor fit]
18 | CCCCCCCN(C(=O)CCl)c1cccc(C)c1 | inconclusive [activator, single point]
19 | COc1ccc2oc(C(=O)Nc3nc(C)cs3)c(C)c2c1 | inactive
20 | COc1cccc(/C=N/NC(=O)c2nc(-c3ccccc3)cc(-c3ccccc3)n2)c1 | inconclusive [activator, partial curve, poor fit]
21 | CCOCCCNS(=O)(=O)c1cc2[nH]c3c(c2cc1C)C(=O)CC(C)(C)C3 | inconclusive [activator, full curve, poor fit]
22 | Cc1ccc(NC(=O)N2CCN(Cc3ccc4c(c3)OCO4)CC2)cc1 | inactive
23 | CCOc1ccc(N2CC(C(=O)Nc3cc(S(=O)(=O)N4CCCCC4)ccc3C)CC2=O)cc1 (stereo not given) | inactive
24 | Cc1cc(Br)c2c(c1)/C(=C/C(=O)c1cccs1)C(=O)N2 | inconclusive [activator, partial curve]

Row | SMILES | Potency
25 | COc1cc(/C=C2/C(=N)N3N=C(C(C)C)SC3=NC2=O)ccc1OS(=O)(=O)c1ccccc1 | inconclusive [activator, single point]
26 | c1ccc(C2Oc3ccccc3C3CC(c4cccs4)=NN32)cc1 (stereo not given) | inconclusive [activator, partial curve, poor fit]
27 | Cc1ccc(S(=O)(=O)CCSc2cccc(C(=O)Nc3ccccc3C(=O)O)c2)cc1 | inconclusive [activator, full curve, poor fit]
28 | C=CCn1c(=O)c2c(nc(-n3nc(C)cc3C)n2C)n(C)c1=O | inactive
29 | COc1cc(/C=N/n2c(C)n[nH]c2=S)ccc1OCc1ccc(F)cc1 | inconclusive [activator, single point]
30 | C(=N\N1CCN(C2c3ccccc3-c3ccccc32)CC1)/c1ccncc1 | inconclusive [activator, single point]
31 | CN(C)c1nc(NNC(=O)c2ccccc2)nc(N(C)C)n1 | inactive
32 | C=CCn1c(SCc2nc3ccccc3[nH]2)nnc1-c1ccccn1 | inactive
33 | Cc1cc2c([nH]c3ccccc32)c2c1OC(C)(C)C=C2 | inconclusive [activator, single point]
34 | CCN=c1scc(C)n1/N=C/c1cc(Br)c(O)c(OC)c1 | active: 20.6 µM
35 | CCc1ccc(-c2cc(C)no2)cc1S(=O)(=O)N1CCCN(Cc2ccc(F)cc2)C1 | inconclusive [activator, partial curve, poor fit]
36 | COc1cccc(NC(=S)N/N=C2\CC(C)(C)Oc3ccc(O)cc32)c1 | inconclusive [activator, single point]
37 | Cc1ccc(CCNS(=O)(=O)c2cnc[nH]2)cc1 | inconclusive [activator, single point]
38 | COc1ccc2c(c1)CCc1c(C(=O)Nc3c(C)nn(Cc4ccccc4)c3C)noc1-2 | inconclusive [activator, partial curve, poor fit]
39 | COc1ccc(/C=C/c2c(-c3ccc(OC)cc3)oc3ccccc23)cc1 | inconclusive [activator, full curve, poor fit]
40 | O=C(CCCCCNc1nc(=S)[nH]c2ccccc12)NCCc1c[nH]c2ccccc12 | inconclusive [activator, single point]
41 | CCOc1ncccc1C(=O)N1CCN(c2cc(Cl)ccc2C)CC1 | active: 14.6 µM
42 | O=c1ccc2cc3c4c(c2o1)CCCN4CCC3 | inconclusive [activator, partial curve, poor fit]
43 | N#C/C(=C\c1cn(Cc2ccccc2)c2ccccc12)C(=O)NCc1ccco1 | active: 20.6 µM
44 | COc1cccc(-c2ccc(C#N)c(SCC(=O)NCc3ccco3)n2)c1 | inactive
45 | COc1ccc(N2CC(C(=O)N/N=C/c3c[nH]c4ccccc34)CC2=O)cc1 (stereo not given) | inactive
46 | CCCCCn1c(N2CCN(c3cccc(Cl)c3)CC2)nc2c1c(=O)[nH]c(=O)n2C | inconclusive [activator, partial curve, poor fit]
47 | N#Cc1c(-c2ccc(F)cc2)c(-c2ccc(F)cc2)nn(CCO)c1=O | active: 5.8 µM
48 | COC(=O)C1=C(O)C(C(=O)OC)C(c2ccc(C)cc2)C(C#N)(C#N)C1c1ccc(C)cc1 (stereo not given) | inconclusive [activator, full curve, poor fit]

Row | SMILES | Potency
49 | Cc1cc2ccccc2cc1C(=O)c1ccccc1 | inconclusive [activator, single point]
50 | CCN(CC)S(=O)(=O)c1ccc(N=NC2=C(O)CC(C)(C)CC2=O)cc1 | inactive
51 | CCCCNC(=S)Nc1ccc(SC(F)F)cc1 | inactive
52 | Nc1cc(-c2ccc(Br)cc2)[nH]n1 | inconclusive [activator, single point]
53 | Cc1cccc(CNC(=O)Cn2ccc3cc(S(=O)(=O)N4CCCCCC4)ccc32)c1 | inconclusive [activator, partial curve, poor fit]
54 | NC(=O)CN(Cc1ccccc1)S(=O)(=O)c1ccc2c(c1)OCCO2 | inactive
55 | NS(=O)(=O)c1ccc(NC(=O)Nc2ccccc2)cc1 | inactive
56 | CC(=O)OCCc1c2ccccc2c(CCCN(C)C)c2ccccc12 | active: 18.4 µM
57 | CN1CCCN(C(=O)Cc2c(Cl)cccc2Cl)c2nc3ccccc3nc21 | inconclusive [activator, partial curve, poor fit]
58 | CCCCN(C(=O)CSCc1ccc(C)cc1)c1c(N)n(Cc2ccccc2)c(=O)[nH]c1=O | inconclusive [activator, single point]
59 | Cn1c(N)c(C(=O)COC(=O)c2cccc(S(=O)(=O)N3CCOCC3)c2)c(=O)n(C)c1=O | inactive
60 | O=C(CN1CCN(S(=O)(=O)c2ccccc2[N+](=O)[O-])CC1)NC(=O)NCc1ccco1 | inconclusive [activator, full curve, poor fit]
61 | O=C(NCCc1ccc(Cl)cc1)c1cc(S(=O)(=O)N2CCCCC2)c[nH]1 | inactive
62 | CC1C2(C)OC(=N)C(C#N)(C(C)O2)C1(C#N)C#N (stereo not given) | inconclusive [activator, single point]
63 | CN(CC(=O)Nc1ccc(Cl)c(C(F)(F)F)c1)C(=O)C1CCC1 | inactive
64 | CCn1c(/C=C2\C(=O)Nc3ccccc32)nc2ccccc2c1=O | inconclusive [activator, single point]
65 | O=C(CCCN1C(=O)/C(=C\c2ccco2)SC1=S)Nc1ccc(O)cc1C(=O)O | inactive
66 | O=C1C(=O)N(CCN2CCOCC2)C(c2ccccn2)/C1=C(/O)c1ccc(Cl)cc1 (stereo not given) | inconclusive [activator, single point]
67 | COc1ccc(OC)c(-c2nc3ccccc3nc2-c2ccccc2)c1 | inconclusive [activator, full curve]
68 | COc1ccc2nc(SCc3nc(N)nc(Nc4ccccc4)n3)[nH]c2c1 | inconclusive [activator, partial curve, poor fit]
69 | COc1cc(/C=C2\CCCc3c2nc2ccccc2c3C(=O)O)cc(Br)c1O | inconclusive [activator, partial curve, poor fit]
70 | c1ccc(-c2noc(C3CCCCC3)n2)nc1 | inconclusive [activator, single point]
